Laboratory results as given in the supplement of paper PMC6451100.
This is one part of the list. Read counts after selection give these values, which scatter widely.

test system: Drosophila AGO1 (endogenous, S2-R+ lysate); test: AGO1 loading enrichment factor (IP read count / input read count, not library-size normalised) (ratio); higher = more efficient loading into AGO1; conditions: randomized region: 5' 5N of miR-317 loop
Procedure: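 HISSA: 5'-phosphorylated, 32P-labelled 20-nt ssRNA oligos (miR-317 loop, first 5 nt randomized, constant 3' part TGAAATGCAAGCAAG as printed in methods; DNA letters for RNA) incubated 1 h at 25°C in S2-R+ cell lysate. Endogenous AGO1 was immunopurified with anti-AGO1 and bound oligos were sequenced after splinted ligation.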
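Further: S2-R+ lysate came from cells stably expressing FLAG-tagged AGO2, enrichment per 5N variant computed with FASTAptamer, reads lacking the constant 3′ segment discarded.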

| Sequence | AGO1 loading enrichment factor |
| --- | --- |
| GTAAGTGAAATGCAAGCAAG | 0.119 |
| TATCCTGAAATGCAAGCAAG | 1.71 |
| GCACTTGAAATGCAAGCAAG | 0.0663 |
| TGGGTTGAAATGCAAGCAAG | 0.365 |
| CACAGTGAAATGCAAGCAAG | 0.177 |
| AGGAATGAAATGCAAGCAAG | 0.144 |
| TGAATTGAAATGCAAGCAAG | 0.0883 |
| TACCTTGAAATGCAAGCAAG | 0.792 |
| AATTCTGAAATGCAAGCAAG | 0.223 |
| TTCGATGAAATGCAAGCAAG | 0.312 |
| TACGATGAAATGCAAGCAAG | 0.67 |
| GGAGATGAAATGCAAGCAAG | 0.64 |
| TTTAGTGAAATGCAAGCAAG | 0.218 |
| TTGGATGAAATGCAAGCAAG | 0.632 |
| TGTTATGAAATGCAAGCAAG | 0.123 |
| GGACATGAAATGCAAGCAAG | 4.06 |
| AGAGCTGAAATGCAAGCAAG | 0.0492 |
| AGCCTTGAAATGCAAGCAAG | 0.132 |
| ATTTGTGAAATGCAAGCAAG | 0.105 |
| CTTGGTGAAATGCAAGCAAG | 0.0146 |
| CAAAGTGAAATGCAAGCAAG | 0.153 |
| TCCTTTGAAATGCAAGCAAG | 0.425 |
| CGGTTTGAAATGCAAGCAAG | 0.0615 |
| GGTAGTGAAATGCAAGCAAG | 0.143 |
| CTGTATGAAATGCAAGCAAG | 0.0978 |

| Sequence | AGO1 loading enrichment factor |
| --- | --- |
| TGCACTGAAATGCAAGCAAG | 0.0538 |
| TTTTTTGAAATGCAAGCAAG | 0.116 |
| CAAGCTGAAATGCAAGCAAG | 0.00891 |
| TTTGATGAAATGCAAGCAAG | 0.417 |
| GGTGTTGAAATGCAAGCAAG | 0.22 |
| CCCAATGAAATGCAAGCAAG | 0.113 |
| TATGGTGAAATGCAAGCAAG | 0.394 |
| GGCGGTGAAATGCAAGCAAG | 0.425 |
| GGCGCTGAAATGCAAGCAAG | 0.115 |
| AACGGTGAAATGCAAGCAAG | 0.293 |
| CTTCATGAAATGCAAGCAAG | 0.0629 |
| TCCGTTGAAATGCAAGCAAG | 0.399 |
| CCGTATGAAATGCAAGCAAG | 0.0418 |
| CGGCCTGAAATGCAAGCAAG | 0.135 |
| TGCAATGAAATGCAAGCAAG | 0.0415 |
| CACCATGAAATGCAAGCAAG | 0.141 |
| AATCTTGAAATGCAAGCAAG | 0.0537 |
| CAACTTGAAATGCAAGCAAG | 0.00689 |
| TGTATTGAAATGCAAGCAAG | 0.142 |
| CTGAGTGAAATGCAAGCAAG | 0.0773 |
| GCCATTGAAATGCAAGCAAG | 0.204 |
| CAACCTGAAATGCAAGCAAG | 0.423 |
| TTGGGTGAAATGCAAGCAAG | 0.428 |
| GTCCCTGAAATGCAAGCAAG | 0.114 |
| TACTTTGAAATGCAAGCAAG | 0.259 |

| Sequence | AGO1 loading enrichment factor |
| --- | --- |
| CCGGCTGAAATGCAAGCAAG | 0.0679 |
| TCACGTGAAATGCAAGCAAG | 0.912 |
| CAAATTGAAATGCAAGCAAG | 0.157 |
| GGAGCTGAAATGCAAGCAAG | 0.056 |
| TACTATGAAATGCAAGCAAG | 0.247 |
| CGCGTTGAAATGCAAGCAAG | 0.0424 |
| ACCCTTGAAATGCAAGCAAG | 0.00967 |
| AGCAGTGAAATGCAAGCAAG | 0.0465 |
| GAGCTTGAAATGCAAGCAAG | 0.228 |
| TCGAGTGAAATGCAAGCAAG | 0.344 |
| TCAGATGAAATGCAAGCAAG | 0.265 |
| AGCGCTGAAATGCAAGCAAG | 0.053 |
| GCTCCTGAAATGCAAGCAAG | 0.118 |
| CCGTCTGAAATGCAAGCAAG | 0.281 |
| ATAATTGAAATGCAAGCAAG | 0.139 |
| TACATTGAAATGCAAGCAAG | 0.655 |
| AGTAATGAAATGCAAGCAAG | 0.0795 |
| TCGCATGAAATGCAAGCAAG | 0.365 |
| GAACCTGAAATGCAAGCAAG | 0.288 |
| CCTGGTGAAATGCAAGCAAG | 0.138 |
| TCGCCTGAAATGCAAGCAAG | 0.636 |
| CTCTTTGAAATGCAAGCAAG | 0.135 |
| GCGAATGAAATGCAAGCAAG | 1.35 |
| GCTAATGAAATGCAAGCAAG | 0.123 |
| GCGCATGAAATGCAAGCAAG | 0.935 |

| Sequence | AGO1 loading enrichment factor |
| --- | --- |
| GCTTATGAAATGCAAGCAAG | 0.00489 |
| CCGGATGAAATGCAAGCAAG | 0.234 |
| GGAAGTGAAATGCAAGCAAG | 0.292 |
| CAGGTTGAAATGCAAGCAAG | 0.0799 |
| GCTTCTGAAATGCAAGCAAG | 0.0131 |
| ATTAATGAAATGCAAGCAAG | 0.136 |
| TAGTATGAAATGCAAGCAAG | 0.283 |
| AAGACTGAAATGCAAGCAAG | 0.368 |
| CTATATGAAATGCAAGCAAG | 0.138 |
| CCCGTTGAAATGCAAGCAAG | 0.107 |
| GCGTCTGAAATGCAAGCAAG | 0.147 |
| TGCATTGAAATGCAAGCAAG | 0.0206 |
| GTTGGTGAAATGCAAGCAAG | 0.131 |
| GATATTGAAATGCAAGCAAG | 0.122 |
| ATAGCTGAAATGCAAGCAAG | 0.0729 |
| ACGTGTGAAATGCAAGCAAG | 0.137 |
| ACGACTGAAATGCAAGCAAG | 1.25 |
| TAGGGTGAAATGCAAGCAAG | 0.488 |
| CATGCTGAAATGCAAGCAAG | 0.129 |
| ACATATGAAATGCAAGCAAG | 0.114 |
| ACCTATGAAATGCAAGCAAG | 0.187 |
| GTATATGAAATGCAAGCAAG | 0.104 |
| CGGGATGAAATGCAAGCAAG | 0.682 |
| CATCCTGAAATGCAAGCAAG | 0.134 |
| ATCTTTGAAATGCAAGCAAG | 0.0875 |

| Sequence | AGO1 loading enrichment factor |
| --- | --- |
| TTGGTTGAAATGCAAGCAAG | 0.553 |
| GACGCTGAAATGCAAGCAAG | 0.378 |
| AAAAATGAAATGCAAGCAAG | 0.175 |
| TGTCTTGAAATGCAAGCAAG | 0.017 |
| TTACCTGAAATGCAAGCAAG | 0.404 |
| TGGTCTGAAATGCAAGCAAG | 0.137 |
| CAGACTGAAATGCAAGCAAG | 0.209 |
| TCCCCTGAAATGCAAGCAAG | 1.41 |
| CCGCGTGAAATGCAAGCAAG | 0.0866 |
| TCGATTGAAATGCAAGCAAG | 0.239 |
| ACAGGTGAAATGCAAGCAAG | 0.165 |
| CCCGGTGAAATGCAAGCAAG | 0.178 |
| TTGTCTGAAATGCAAGCAAG | 0.16 |
| ATCAATGAAATGCAAGCAAG | 0.16 |
| GGGGATGAAATGCAAGCAAG | 4.06 |
| GGAAATGAAATGCAAGCAAG | 0.146 |
| GAAAGTGAAATGCAAGCAAG | 0.121 |
| GATGTTGAAATGCAAGCAAG | 0.141 |
| CCGAGTGAAATGCAAGCAAG | 0.104 |
| TTGAATGAAATGCAAGCAAG | 1.9 |
| ATCACTGAAATGCAAGCAAG | 0.174 |
| TGGGGTGAAATGCAAGCAAG | 1.71 |
| CCAGGTGAAATGCAAGCAAG | 0.0668 |
| ATATTTGAAATGCAAGCAAG | 0.134 |
| AGACCTGAAATGCAAGCAAG | 0.119 |
